Data from PubChem BioAssay AID1159614 (National Center for Advancing Translational Sciences (NCATS), 2016).
Hit rate of the full screen: of about 45,000 compounds, about 65 (0.1%) were called active. Calls follow the shape of the dose curve; as a rule, active = well fitted activation curve with a large enough effect; inconclusive = small, poorly fitted or top-dose-only effect; inactive = no such curve, though single readings can be large or run the other way. The list shows a part of the results.

molecular target: Galactocerebrosidase (Homo sapiens) (UniProt P54803); assay: A Novel Cell-Based Assay to Identify Small Molecules for B -Galactocerebrosidase; conditions: 145M-Twi-hGALC-G270D cells, HMU-beta-Gal fluorescence, 48 h; series mostly up to 57.5 µM; activation: at the top concentration; also: 0% is about no effect; nearly all actives have a fitted effect of over 65% in size
Sequence of UniProt P54803 (P54803 whole entry, looked up): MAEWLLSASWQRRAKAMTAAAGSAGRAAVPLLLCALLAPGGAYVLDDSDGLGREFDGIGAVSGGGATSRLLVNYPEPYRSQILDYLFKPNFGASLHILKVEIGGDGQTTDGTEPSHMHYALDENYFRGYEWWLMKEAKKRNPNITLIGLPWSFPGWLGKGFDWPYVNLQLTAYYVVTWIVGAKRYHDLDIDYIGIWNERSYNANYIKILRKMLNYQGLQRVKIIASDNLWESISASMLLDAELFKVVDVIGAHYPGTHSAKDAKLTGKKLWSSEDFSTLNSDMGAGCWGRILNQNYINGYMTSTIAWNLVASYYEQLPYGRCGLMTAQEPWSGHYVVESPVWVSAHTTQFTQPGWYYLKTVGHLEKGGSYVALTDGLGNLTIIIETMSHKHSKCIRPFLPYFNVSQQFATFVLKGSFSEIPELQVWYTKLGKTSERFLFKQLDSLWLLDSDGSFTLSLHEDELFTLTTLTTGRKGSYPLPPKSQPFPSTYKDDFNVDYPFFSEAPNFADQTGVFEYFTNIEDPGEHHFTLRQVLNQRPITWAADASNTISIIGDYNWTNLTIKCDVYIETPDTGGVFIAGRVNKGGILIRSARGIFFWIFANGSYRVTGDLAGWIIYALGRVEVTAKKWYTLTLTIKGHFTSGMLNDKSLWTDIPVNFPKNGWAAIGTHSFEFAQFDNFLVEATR
Summary of the method: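 qHTS, 1536-well; 145M-Twi-hGALC-G270D cells (WT line also made) in DMEM/F12 + 10% FBS; compound incubation on live cells; HMU-β-gal 0.1 mM final, pH 5.2, NaTC; carbonate stop; fluorescence increase = enhanced residual activity.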

activation, inactive:
O=C1Cc2cc(S(=O)(=O)Nc3ccc(OC(F)(F)F)cc3)cc3c2N1CCC3 -8.39%, CCOC(=O)c1c(C)oc2nc(C)nc(NCC3CCN(Cc4ccc(F)cc4)CC3)c12 -3.63%, COc1ccc(CNc2ncnc3c2cnn3-c2ccc(Cl)cc2)cc1 -9.95%, COc1cccc(-c2ccc3c(N)c(C(=O)c4ccc(F)cc4)sc3n2)c1 -13.2%, CC(NC(=O)CCCN1C(=O)CCn2nc(-c3cn(C)c4ccccc34)cc21)c1ccccc1 (stereo not drawn) -4.03%, Fc1ccc(-c2nc3c4c(-c5ccccc5)c(-c5ccccc5)oc4ncn3n2)cc1 4.73%, Cc1cc(N2CCN(C)CC2)nc2ccc(NC(=O)Nc3ccc(F)cc3F)cc12 -9.12%, CCC(Oc1ccccc1)C(=O)N1CCN(Cc2cc(=O)n3nc(-c4cccc(C)c4)sc3n2)CC1 (stereo not drawn) 1.88%, O=C(Nc1ccc(Cl)c(-c2nc3ccccc3o2)c1)c1cccc2c(Cl)cccc12 -5.85%, COc1ccc(Nc2ccc3cc(S(=O)(=O)N4CCCC4)ccc3n2)cc1OC -9.67%, Cc1ccc(CSC2=Nc3ccccc3C3=NC(CCC(=O)NCc4cccs4)C(=O)N23)c(C)c1 (stereo not drawn) -11.6%, Cc1ccc(NC(=O)CSc2nncn3c2cc2sccc23)cc1F -7.47%, Cc1ccc(-n2c(=O)c3c(c4cc(C)ccc4n3C)n(CC(=O)NCC3CCCO3)c2=O)cc1 (stereo not drawn) -8.39%, Cc1ccc(Cl)c(OCC(O)CNC(C)(C)C)c1 (stereo not drawn) -9.48%, Cc1ccc(NS(=O)(=O)c2c(C)nc3sccn3c2=O)c(Cl)c1 -18.9%, COc1cc(Cl)c(NC(=O)CC(C)S(=O)(=O)c2cc3c(cc2C)NC(=O)CO3)c(OC)c1 (stereo not drawn) -5.69%, CCC(=O)O[C@H]1[C@H](O[C@@H]2[C@@H](C)[C@H](O[C@H]3C[C@@](C)(OC)[C@@H](O)[C@H](C)O3)[C@@H](C)C(=O)O[C@H](CC)[C@@](C)(O)[C@H](O)[C@@H](C)C(=O)[C@H](C)C[C@@]2(C)O)O[C@H](C)C[C@@H]1N(C)C -9.21%, Cc1ccc(-c2nc3n(n2)C(=O)CC(c2ccc(C)cc2)S3)cc1 (stereo not drawn) -13.4%, CC(C)c1ccc(NC(=O)c2cc(S(=O)(=O)N3CCc4ccccc4C3)ccc2F)cc1 -5.6%, CCCCOC(=O)c1ccc(NC2=NS(=O)(=O)c3ccccc32)cc1 -15.9%, Cc1cccc(NC(=O)CCn2nc(C)c3c(C)n(-c4ccccc4)nc3c2=O)c1C -23%, Cc1ccc(NC(=O)CCS(=O)(=O)c2ccc3nc(C)sc3c2)c(C)c1 5.97%, Nc1ncnc2c1ncn2[C@@H]1O[C@H](COP(=O)(O)O)[C@@H](O)[C@H]1O -10.9%, CCOc1ccc(CN2C(=O)c3ccccc3Sc3ccc(C(=O)NCCCN4CCOCC4)cc32)cc1 5.08%, COc1ccc(S(=O)(=O)NCc2ccc3c(c2)CCN3C(C)=O)cc1OC -12.4%, Cc1ccc(OCC(=O)N(Cc2nc(-c3ccccc3)no2)C(C)C)cc1C -5.33%, Cc1ccc(S(=O)(=O)N2CCCc3cc(NS(=O)(=O)c4ccccc4)ccc32)cc1 -17.9%, COC(=O)c1ccc([C@H]2Nc3ccc(S(=O)(=O)Nc4ccc(F)cc4)cc3[C@H]3C=CC[C@H]32)cc1 -7.57%, CCOc1ccc(C(=O)Nc2ccc(NC(=O)c3ccccc3)cc2)cc1Br -15.6%, CN(C)c1ncc(C(=O)NCc2ccccc2Cl)cn1 -10%, COc1ccccc1N1CCN(c2c(CN3CCCC3)c(=O)oc3ccccc23)CC1 -11.8%, CCOc1ccc(S(=O)(=O)N(CC(=O)NCCc2ccc(OC)cc2)c2ccccc2)cc1 3.47%, O=C(Nc1ccc(Cl)c(Cl)c1)N(Cc1c[nH]c2ccccc12)C1CCCCC1 -5.24%, COc1ccccc1-c1noc(CSc2nnc(-c3ccccc3)n2-c2ccc(C)c(C)c2)n1 -12.1%, Cc1cc(C)c(/C=C/c2onc(C)c2S(=O)(=O)N2CCC(C(=O)Nc3cccc(C)c3C)CC2)c(C)c1 -3.73%, C[N+]12CCC(CC1)C(OC(=O)C(O)(c1ccccc1)c1ccccc1)C2 (stereo not drawn) -11.6%, CCOC(=O)CNC(=O)Nc1cc(C(=O)NCc2ccc(C(C)C)cc2)ccc1N1CCCC1 -20.9%, Cc1ccc2[nH]c(=O)c3cc(C(=O)NCc4cccc(Cl)c4)sc3c2c1 5.31%, Cc1cc(OCC(=O)Nc2sc3c(c2C#N)CCC(C)C3)ccc1Cl (stereo not drawn) -9.41%, Cc1ccc(S(=O)(=O)N2CCCC2C(=O)Nc2ccc(Br)cc2)cc1 (stereo not drawn) -6.36%, CCOc1ccc(C(=O)c2cn(Cc3cccc(OC)c3)c3cc4c(cc3c2=O)OCO4)cc1 -17.4%, O=C(CSc1ncc(-c2ccc(Cl)cc2)[nH]1)Nc1ccccc1F -13.3%, O=C(C1CCCN(S(=O)(=O)c2cccc3nonc23)C1)N1CCN(c2cccc(C(F)(F)F)c2)CC1 (stereo not drawn) -35%, CC(=O)c1ccc(NC(=O)CSc2nc(-c3ccccc3C)nc3c2c(=O)n(C)c(=O)n3C)cc1 -28%, CCOC(=O)c1c(C)oc2nc(C)nc(N(C)Cc3ccccc3)c12 -11%, Cc1nc2c(-c3ccccc3)c(C)nn2c(C)c1CCC(=O)NCCc1ccccc1 -31.7%, CC(C)c1ccc(NC(=O)N2CCN(c3ccc(Cl)c(Cl)c3)CC2)cc1 -9.38%, CCOc1ccc(NC(=O)CSc2nc3c([nH]c4ccccc43)c(=O)n2-c2cc(C)cc(C)c2)cc1 -21.9%, O=C(COc1cccc(Cl)c1)N1CCC(c2nc3ccccc3o2)CC1 -18.3%, Cc1cccc(N2CCN(C(=O)c3cnc4c(C)cccn4c3=O)CC2C)c1 (stereo not drawn) -1.61%, O=C(NCc1ccccc1Cl)C1CCCN(C(=O)c2cnn(-c3ccc(F)cc3)c2-n2cccc2)C1 (stereo not drawn) -27.9%, COc1ccc(NC(=O)CSc2nc3c(oc4ccccc43)c(=O)n2-c2ccccc2)cc1OC -9.69%, CCC(C)NC(=O)c1ccc2c(c1)nc1n2CCCCC1 (stereo not drawn) -18.9%, CCOC(=O)c1c(C)oc2c1cc(NS(=O)(=O)c1ccc(C)cc1)c1ccccc12 -6.54%, O=C(NC1CC(=O)N(c2ccc(Cl)cc2)C1)C1CCCC1 (stereo not drawn) 1.05%, Cc1ccc(N2CCN(C(=O)c3c(C)oc4ncnc(N5CCCCC5)c34)CC2)c(C)c1 -33.4%, CCOc1ccccc1NC(=O)c1cc(S(=O)(=O)N2CCOCC2)cn1C -0.889%, O=C(CSc1nc(-c2ccccc2)no1)N1CCN(c2ccccc2)CC1 -8.53%
